What was measured:
human IgE [1] = target: T1, human IgE (Homo sapiens, UniProt P01854); assay: Phage binding to immobilized human IgE (panning, epitope mapping)
[2] = target: human IgE / recombinant FcERI (Homo sapiens, UniProt P01854); assay: ELISA competition with recombinant human FcERI for IgE; assay type: binding
human IgE [3] = target: T1, human IgE; assay: Biacore affinity measurements on immobilized human IgE; assay type: binding; conditions: IgE on CM5 chip

T1 sequence (P01854 1-427 limits assumed): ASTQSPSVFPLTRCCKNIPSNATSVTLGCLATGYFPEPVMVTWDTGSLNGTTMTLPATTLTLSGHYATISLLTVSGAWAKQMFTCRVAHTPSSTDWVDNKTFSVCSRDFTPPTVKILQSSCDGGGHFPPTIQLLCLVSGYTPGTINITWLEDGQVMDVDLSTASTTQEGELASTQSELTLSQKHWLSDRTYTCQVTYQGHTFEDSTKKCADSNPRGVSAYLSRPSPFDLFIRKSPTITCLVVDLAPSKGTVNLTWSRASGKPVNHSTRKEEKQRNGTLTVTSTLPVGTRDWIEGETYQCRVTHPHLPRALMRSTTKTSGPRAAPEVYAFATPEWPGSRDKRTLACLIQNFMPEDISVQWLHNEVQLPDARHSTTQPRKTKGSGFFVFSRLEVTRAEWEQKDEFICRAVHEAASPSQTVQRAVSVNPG
Sequence of human IgE / recombinant FcERI (P01854 1-427 limits assumed): as above

## IgE1: A-domain monomer binding human IgE, single sequence of the majority of the selected phage clones (CPANEFQCRNSSTCIPRRWLCDGDDDCGDGSDETGCSAPASEPPGSLSLQ)
Human IgE [1]
  affinity for IgE relative to other sequences tested: highest affinity of all the sequences tested
Human IgE [1]; IgE immobilized via antibody against Cε2
  competition with α-Cε2 antibody: not the α-Cε2 antibody
Human IgE [1]; IgE immobilized via antibody against Cε3
  competition with α-Cε3 antibody: competed with the α-Cε3 antibody
[2]
  competition with IgE receptor (FcERI) binding: competes for the natural receptor epitope
Human IgE [3]
  ka: 2.4 × 10^4
  kd: 2.7 × 10^−2

— US20050089932A1, “Novel proteins with targeted binding” (Avidia Research Institute, priority 2001, published 2005)
